# Test results from PubChem BioAssay AID488969 (Vanderbilt High Throughput Screening Facility, 2010).
# Over roughly 110,000 compounds, “z-score” has its median near -0.1; the highest 2% begin near 2. The list shows a part of the results. Calls of active or inactive are those of the source.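 How the source made its calls: active means z-score in the third read window above 3 or below -3; inactive means the rest.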
# Target: Metabotropic glutamate receptor 8 (Rattus norvegicus) (UniProt P70579)
# Assay: mGluR8 Gi/Go-coupled signaling modulation – cell-based, rat, thallium flux, HTS, primary screen (AID 488969)
# Conditions: HEK293 rat mGluR8, GIRK (G protein-gated inwardly rectifying potassium channel) thallium flux, FluoZin2; at 10 µM; stronger effect = higher value; submaximal glutamate (EC20) added with thallium
# Sequence of UniProt P70579 (P70579 whole entry, looked up): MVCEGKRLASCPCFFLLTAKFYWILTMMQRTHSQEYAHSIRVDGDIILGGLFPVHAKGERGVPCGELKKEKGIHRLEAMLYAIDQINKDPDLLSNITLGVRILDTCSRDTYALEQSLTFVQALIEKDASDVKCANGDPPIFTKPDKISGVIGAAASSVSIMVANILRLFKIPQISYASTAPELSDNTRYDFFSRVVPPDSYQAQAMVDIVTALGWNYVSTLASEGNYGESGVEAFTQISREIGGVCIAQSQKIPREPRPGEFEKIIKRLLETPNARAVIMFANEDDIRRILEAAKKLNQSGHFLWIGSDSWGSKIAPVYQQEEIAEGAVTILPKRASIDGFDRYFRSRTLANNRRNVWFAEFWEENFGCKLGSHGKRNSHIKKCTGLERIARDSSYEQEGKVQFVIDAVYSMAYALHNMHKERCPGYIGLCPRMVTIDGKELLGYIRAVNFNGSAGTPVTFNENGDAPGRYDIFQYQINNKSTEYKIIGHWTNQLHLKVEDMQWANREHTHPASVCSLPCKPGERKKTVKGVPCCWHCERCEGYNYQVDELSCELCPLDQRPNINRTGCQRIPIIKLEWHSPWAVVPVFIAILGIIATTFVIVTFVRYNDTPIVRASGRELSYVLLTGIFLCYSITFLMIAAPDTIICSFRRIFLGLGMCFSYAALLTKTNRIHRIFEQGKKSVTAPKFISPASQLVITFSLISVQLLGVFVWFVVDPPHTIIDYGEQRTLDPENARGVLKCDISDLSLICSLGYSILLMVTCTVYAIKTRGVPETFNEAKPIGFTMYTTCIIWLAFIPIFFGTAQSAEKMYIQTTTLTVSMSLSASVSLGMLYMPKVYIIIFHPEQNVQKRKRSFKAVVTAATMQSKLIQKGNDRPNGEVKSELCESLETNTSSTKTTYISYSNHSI
row,Compound,z-score
1,O=C(CCN1C(=O)c2ccccc2C1=O)N(CCO)Cc1ccccc1,0.0525
2,COc1ccccc1OCC(=O)NCC1CCCCC1,-0.0542
3,Cn1c(C(=O)NCCN2CCOCC2)cc2c(=O)n(C)c3ccccc3c21,-2.82
4,CCCn1c(SCC(=O)N2CCCc3ccccc32)nc2c1c(=O)n(C)c(=O)n2C,0.812
5,COc1ccc(N2C(=O)CCC(C(=O)NCc3ccccn3)C2c2ccc(F)cc2)cc1 (stereo not given),0.0745
6,O=C(N/C(=C/c1cccs1)C(=O)N1CCCCCC1)c1ccccc1,-0.352
7,CC1(C)CC2CC(C)(CN2C(=O)C23CCC(C)(C(=O)C2)C3(C)C)C1 (stereo not given),-0.132
8,CCN(C(=O)COC(=O)c1cccnc1Nc1cccc(C(F)(F)F)c1)C1CCS(=O)(=O)C1 (stereo not given),0.101
9,CCOC(=O)Cc1csc(NC(=O)c2cnc3scc(C)n3c2=O)n1,-0.301
10,O=C1CSC2=NCN(c3ccccc3)CN12,-0.295
11,COC(=O)c1cccc(NC(=O)C23CC4CC(C2)CC(n2cncn2)(C4)C3)c1,-0.387
12,O=C(Cn1nc(C(F)F)cc1C(F)F)N/N=C/c1ccc2c(c1)OCO2,-0.226
13,Cc1ccc(S(=O)(=O)N2CCCCC2)cc1C(=O)Nc1ccc2cn[nH]c2c1,-0.545
14,Cc1ccc(-c2nnc(-c3ccc(NC(=O)c4ccco4)cc3)o2)cc1,0.261
15,C/C(=N\NC(=O)c1ccoc1C)c1cccnc1,0.566
16,COCCOC(=O)C1=C(C)N=C2SCCC(=O)N2C1c1ccc(OC(=O)c2ccco2)cc1 (stereo not given),1.5
17,Cc1nnsc1C(=O)NC1CCCCC1,-0.000764
18,O=C(CSCc1c(Cl)cccc1Cl)Nc1ccccc1C(=O)N1CCOCC1,-0.0398
19,CC(CNCc1ccc2c(c1)OCO2)NCc1ccc2c(c1)OCO2 (stereo not given),-0.342
20,CCC(C)Nc1nc(-c2ccc3c(c2)NC(=O)CO3)cs1 (stereo not given),-0.122
21,CCCCCCn1cnc2c(c1=O)c1nc3ccccc3nc1n2/N=C/c1ccco1,-1.38
22,Cc1nc(NC(=O)/C=C/c2ccccc2)sc1C(=O)Nc1ccccc1Cl,-0.0413

row,Compound,z-score
1,O=C(CSc1ncccc1C(=O)O)c1ccc2ccccc2c1,-0.64
2,COc1ccc(S(=O)(=O)NC(C)C(=O)O)cc1 (stereo not given),-0.408
3,O=C(CCc1nc2ccccc2s1)c1ccccc1,-0.0627
4,Cc1ccnc(NS(=O)(=O)c2ccccc2)n1,-0.0554
5,COc1ccc(CN2C3CCCC2CC(NC(=O)Nc2ccccc2)C3)cc1 (stereo not given),0.209
6,Cc1ccc(-c2cn(S(=O)(=O)c3ccc(C)cc3)nc2N)cc1,-0.279
7,O=C(NCc1ccc(F)cc1)C(Cc1ccccc1)NS(=O)(=O)c1cccs1 (stereo not given),-0.208
8,FC(F)Sc1nnc(-c2cccs2)n1-c1ccccc1,0.436
9,Cc1ccc2ncccc2c1NS(=O)(=O)c1ccccc1,-0.246
10,CSCC[C@H](NC(=O)OC(C)(C)C)C(=O)N1CCC(C(=O)N[C@@H](C)C(=O)O)CC1,-0.096
11,CC(=O)c1ccc(OC(C)C)c(CC(C(N)=O)C(N)=O)c1,0.19
12,O=C(c1cc2ccccc2o1)c1cccs1,-0.195
13,N#Cc1cc(-c2ccc(Cl)cc2)cn(Cc2c(Cl)cccc2Cl)c1=O,-0.0556
14,CCOc1ccc(C(=O)Nc2ccc(NC(=O)c3ccco3)c(Cl)c2)cc1Cl,0.223
15,CC(OC(=O)c1ccccc1Br)C(=O)Nc1nc(-c2cccc([N+](=O)[O-])c2)cs1 (stereo not given),-0.102
16,CCOC(=O)/C=C1\Nc2ccccc2SC1=O,-0.188
17,O=c1cc(N2CCOCC2)c2ccccc2o1,0.0864
18,COc1ccc(NS(=O)(=O)c2ccc(OCC(=O)N3CCCC3)cc2)cc1,-0.41
19,O=C(CCCN1C(=O)/C(=C/c2ccco2)SC1=S)Nc1ccccc1,0.296
20,CC(=C/c1ccc(C(C)C)cc1)/C=N/NC(=O)CSc1ccccn1,-0.28
21,COc1ccc(C(C)NC(=O)c2ccoc2C)cc1OC (stereo not given),0.298
22,O=C(C[n+]1ccc(C(=O)N/N=C/c2ccc(Cl)cc2Cl)cc1)c1ccccc1,-0.274

row,Compound,z-score
1,Cc1c(NS(=O)(=O)c2cccc(C(=O)NCc3ccncc3)c2)c(=O)n(-c2ccccc2)n1C,0.136
2,O=S(=O)(NC1CCCCC1Nc1ccccc1)c1ccccc1 (stereo not given),-0.0931
3,Cc1cc2nc(C)n(CCCNC(=O)Nc3ccc(C#N)cc3)c2cc1C,-0.713
4,Cc1nnc(SCC(=O)Nc2ccccc2NC(=O)CSc2nnc(C)s2)s1,-0.284
5,O=C(CCn1c(=O)sc2ccccc21)NC1=NCCS1,-0.116
6,CCOCC(=O)Nc1cc(C(=O)Nc2ccccc2)ccc1Cl,-0.272
7,CN(C(=O)c1ccccn1)c1nnc(-c2cccnc2)s1,0.281
8,O=C(NC12CC3CC(CC(C3)C1)C2)c1ccc(COc2ccc(Cl)cc2[N+](=O)[O-])o1,-0.187
9,FC(F)(F)c1cc(C(F)(F)F)c2ccc(N3CCN(c4ccccc4)CC3)nc2n1,0.0521
10,O=C(COc1ccc2ccccc2c1)NCC(=O)N/N=C/c1ccco1,-0.0967
11,COc1ccc(C(=O)N(NC(=O)Oc2ccccc2)C(C)(C)C)cc1,0.485
12,CCOc1ccc(-n2c(SCc3ccc([N+](=O)[O-])cc3)nnc2-c2ccccc2)cc1,-0.0627
13,COC(=O)CC1=C(C(=O)OC)C(c2ccncc2)C(C#N)=C(N)O1 (stereo not given),0.588
14,O=C(Nc1ccc(Cl)cc1C(=O)NCCN1CCOCC1)c1ccco1,0.442
15,CC(=O)c1cccc(NC(=O)CN(C2CCCCC2)S(C)(=O)=O)c1,0.131
16,COc1ccc(C(CC(=O)O)NC(=O)c2sc3ccccc3c2Cl)cc1 (stereo not given),-0.476
17,Cc1nc2ccccc2c(=O)n1NC(=O)/C=C/c1ccc(Br)cc1,0.016
18,COc1ccc(CCn2c(C(C)C)nc3c(c(=O)c4ccccc4n3C)c2=O)cc1,-0.648
19,CSc1ccc(CNc2cccc3ccccc23)cc1,-0.0822
20,CC(C)C(=O)Nc1cccc(C(=O)Nc2ccccc2C(=O)O)c1,-1.02
21,COc1ccccc1-c1c(C)nn2c(N3CCN(Cc4ccccc4)CC3)cc(C)nc12,0.352
22,CCOC(=O)C1=C(c2ccccc2)Nc2ncnn2C1c1ccccn1 (stereo not given),-0.761

row,Compound,z-score
1,CC(C)(C)n1nnnc1C(c1cccnc1)N(Cc1ccccc1)Cc1ccco1 (stereo not given),-0.411
2,O=C(NCCC1=CCCCC1)c1cc2c(s1)CS(=O)(=O)C2,-0.138
3,CCCCCCOC(=O)Nc1ccc(S(=O)(=O)Nc2cccc([N+](=O)[O-])c2)cc1,-0.217
4,COC(=O)c1ccc(N2C(=O)CC(N3CCN(c4ccccc4)CC3)C2=O)cc1 (stereo not given),-0.165
5,N#CC1=C(SCc2ccccc2)NC(=O)CC1c1ccc(O)cc1 (stereo not given),0.918
6,O=C(NCc1ccco1)c1ccc(Oc2ccccc2)cc1,-0.352
7,N#CC(c1ccc(Cl)cc1)c1nc2ccccc2nc1C(F)(F)F (stereo not given),-0.127
8,Cc1cccc(C)c1NC(=O)CCN1C(=O)C2C3CCC(C3)C2C1=O (stereo not given),0.139
9,Cc1ccc(CC(=O)Nc2ccc(F)c([N+](=O)[O-])c2)cc1,0.357
10,O=C(COc1ccc(Cl)cc1Cl)N1CCCN(C(=O)COc2ccc(Cl)cc2Cl)CC1,0.0165
11,COc1ccc(C(CC(=O)c2ccccc2)S(=O)(=O)c2ccc(C)cc2)cc1 (stereo not given),-0.141
12,O=C(CC1Nc2ccccc2NC1=O)Nc1cc(Cl)cc(Cl)c1 (stereo not given),0.051
13,O=C(c1cccs1)N(Cc1cccc(Cl)c1)C1CCS(=O)(=O)C1 (stereo not given),0.343
14,CCCCNC(=O)COC(=O)CCC(=O)c1ccc(F)cc1,0.237
15,O=C(N/N=C\c1ccc2c(c1)OCO2)c1ccco1,-0.127
16,CCC(=O)Nc1cccc(-n2nnnc2SCC(=O)NCc2ccco2)c1,0.799
17,Cc1ccc(Nc2cc(-n3cccn3)ncn2)c(C)c1,-0.35
18,CCn1c(=O)c2cc(C(=O)N3CCOCC3)sc2c2ccccc21,-0.0705
19,CC(=O)c1c(C)[nH]c(C(=O)Nc2nc(-c3ccc(-c4ccccc4)cc3)cs2)c1C,-0.0439
20,Cc1cc(C)cc(N(CC(=O)NCCSc2ccccn2)S(=O)(=O)c2ccccc2)c1,-0.188
21,CCOc1ccccc1N(C(=O)Nc1ccc(Cl)cc1)C1=NCCS1,-0.424
22,CCNC(=S)Nc1cc(OCC)c(NC(=O)c2ccco2)cc1OCC,-0.249

row,Compound,z-score
1,CCOc1ccc(NC(=O)C(C)Sc2nnnn2C)cc1 (stereo not given),-0.23
2,O=S(=O)(c1ccc(N2CCC(c3ccc(Cl)cc3)=N2)cc1)N(CCO)CCO,-0.748
3,c1ccc(-c2nccc(-c3ccc(-n4cnc5ccccc54)cc3)n2)cc1,-0.341
4,CSCC[C@H](NC(=O)OC(C)(C)C)c1nnc(SCC(=O)N(C)C)o1,-0.106
5,COc1ccc(/C=N/N=C2\SCC(=O)N2c2c(C)n(C)n(-c3ccccc3)c2=O)cc1OC,-0.267
6,CC1CCN(c2ncnc3c2cnn3-c2ccccc2)CC1,0.0724
7,COC(=O)CCC(=O)Nc1ccccc1C(=O)Nc1ccccc1,-0.215
8,Cc1cc(NCC2CCCO2)n2c(nc3ccccc32)c1C#N (stereo not given),-1.2
9,O=C(N/N=C/C=C/c1ccc(Br)cc1)C(O)c1ccccc1 (stereo not given),0.008
10,CCn1c(COc2ccc(Cl)cc2)nnc1SC1CCc2ccccc2C1=O (stereo not given),-0.443
11,NS(=O)(=O)c1ccc(CCNC(=O)CSc2nc3ccsc3c(=O)n2C2CC2)cc1,-0.632
12,CC(=O)/C(=N\Nc1ccc(C)cc1)N1CCOCC1,-0.102
13,Cc1ccc(C)c(NS(=O)(=O)c2cc(C(=O)Nc3ccccc3-c3ccccc3)ccc2Cl)c1,-0.546
14,COCCOC(=O)/C=C1/NC(=O)CS1,-0.352
15,CCCCNC(=O)C1CCN(c2nc(OC)nc(OC)n2)CC1,-0.214
16,COC(=O)CSCC(=O)Nc1cc2c(cc1C(C)=O)OCO2,0.0216
17,CC1(C)Cc2ccccc2-c2nnc(-c3ccccn3)n21,0.413
18,COc1cccc(C=Nc2ccccc2C(=O)Nc2ccccc2)c1O,-0.223
19,CC(C)CN1C(=O)/C(=C/c2cccs2)NC1=S,active: 15.8
20,CN1CC(c2ccccc2Cl)C2(COc3ccccc3C2=O)C12C(=O)Nc1ccccc12 (stereo not given),-0.111
21,COc1ccc(OCC(=O)Nc2ccccc2OC(F)F)cc1,2.69
22,CC(=O)c1cc(-c2ccccc2)n(CCC(=O)NCc2cccs2)c1C,1.1
